# Article PMC6919601, “Identification of Plasmodium dipeptidyl aminopeptidase allosteric inhibitors by high throughput screening” (PLoS ONE, 2019)
# Among all 110,000 compounds or so, about 230 (0.21%) showed an effect of 50% or more. The list shows a part of the results.
# Target: DPAP1 (Plasmodium falciparum, UniProt Q8IIJ9)
# Test: primary screen, percent inhibition; read by cleavage of a fluorogenic dipeptide substrate; higher = more effect of the substance
# Set-up: species or system P. falciparum D10 trophozoite lysates; single well
# 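Further: 30 min substrate incubation versus DMSO and 10 µM JCP410 controls.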
# Chain of DPAP1 (Q8IIJ9 whole entry, looked up): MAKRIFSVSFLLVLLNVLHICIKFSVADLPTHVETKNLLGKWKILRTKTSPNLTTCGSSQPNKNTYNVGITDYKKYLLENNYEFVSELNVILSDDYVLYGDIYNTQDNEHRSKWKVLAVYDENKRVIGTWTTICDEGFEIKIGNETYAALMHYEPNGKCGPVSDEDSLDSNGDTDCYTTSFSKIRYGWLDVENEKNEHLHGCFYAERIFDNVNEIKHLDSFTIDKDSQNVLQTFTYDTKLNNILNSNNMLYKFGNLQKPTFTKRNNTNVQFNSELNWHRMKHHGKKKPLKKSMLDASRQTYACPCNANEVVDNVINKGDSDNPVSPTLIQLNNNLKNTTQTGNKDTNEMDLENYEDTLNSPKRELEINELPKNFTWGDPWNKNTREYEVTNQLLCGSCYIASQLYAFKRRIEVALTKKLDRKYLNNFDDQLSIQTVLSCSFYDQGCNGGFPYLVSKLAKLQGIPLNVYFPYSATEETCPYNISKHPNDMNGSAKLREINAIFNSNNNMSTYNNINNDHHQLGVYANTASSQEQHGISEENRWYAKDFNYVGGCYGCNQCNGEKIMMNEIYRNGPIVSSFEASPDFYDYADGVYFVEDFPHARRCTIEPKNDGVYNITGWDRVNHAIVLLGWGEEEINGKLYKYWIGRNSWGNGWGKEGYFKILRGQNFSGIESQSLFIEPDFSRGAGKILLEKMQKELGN
row,SMILES,% Inhibition @ 10 uM [%]
1,O=C1CC(N2CCN(C/C=C/c3ccccc3)CC2)C(=O)N1c1ccc(F)cc1 (centres unmarked),-3.04
2,COCCNC(=O)c1ccc2c(c1)c(C)c(C)n2Cc1ccc(F)cc1,-6.64
3,CC1CC(C)CN(CCCNC(=O)c2csc3c2CCCC3)C1 (centres unmarked),-1.44
4,O=C(Nc1ccc(N2CCOCC2)cc1)c1cccc(S(=O)(=O)N2CCCC2)c1,0.389
5,COc1ccc2nc3c(O)n(C)c(SCc4ccccc4C)nc-3c2c1,-3.85
6,CN1CCN(C(=O)c2sc3ccccc3c2Cl)CC1,0.78
7,C#CCOc1c(Br)cc(C2C(C#N)=C(N)OC3=C2C(=O)CC(C)(C)C3)cc1OC (centres unmarked),0.726
8,CCn1c2ccccc2c2cc(CN(C)CCN(C)C)ccc21,-3.27
9,CCCCN(C)C(=O)C(c1ccccc1)c1ccccc1,-2.42
10,CCOc1ccc(N(C(C)C(=O)N2CCN(c3ccccc3OC)CC2)S(C)(=O)=O)cc1 (centres unmarked),4.08
11,Cc1cc(C)c2c(CC(=O)Nc3ccccc3)coc2c1,0.214
12,O=C(CSc1ccnc2cc(Cl)ccc12)c1ccc2c(c1)OCO2,2.77
13,O=[N+]([O-])c1c(NCc2ccccc2)cc(N2CCCCCC2)c2nonc12,-0.636
14,Cc1ccccc1C(=O)Nc1ccccc1NC(=O)c1ccccc1C,0.408
15,CC(C)NC(=O)c1cc(-c2ccccc2O)on1,-1.29
16,C/C=C/Cn1c(SC/C=C(/C)Cl)nc2c1c(=O)[nH]c(=O)n2C,-0.25
17,COc1cc(C2SCC(=O)N2CCc2ccc(OC)c(OC)c2)ccc1O (centres unmarked),3.65
18,Cc1c(CNC(=O)c2cc3n(n2)C(C(F)(F)F)CC(c2ccc4c(c2)OCO4)N3)cnn1C (centres unmarked),-1.79
19,Cc1cc(=O)oc2cc(OCC(=O)NC3CCCCCC3)ccc12,4.1
20,CCOc1ccc(/C=C/C(O)=C2\C(=O)Oc3ccccc3C2=O)cc1,-6.91
21,CCN1C(=O)N/C(=C/c2ccc(OC(C)C)c(OC)c2)C1=O,2.48
22,COc1ccccc1CNC(=O)Cn1c2ccccc2c2cnnc(O)c21,-2
23,CC(C)CCOc1ccc2c(-c3ccccc3)cc(=O)oc2c1,1.04
24,O=C(O)C1C2CCC(C2)C1C(=O)Nc1ccc2c(c1)OCO2 (centres unmarked),-1.32
25,O=C(Nc1ccc2c(c1)oc1ccccc12)c1ccncc1,0.0345

row,SMILES,% Inhibition @ 10 uM [%]
1,Cc1sc(NC(=O)c2ccco2)c(C(c2cccnc2)N2CCN(CCO)CC2)c1C (centres unmarked),1.96
2,O=C(c1cccs1)N1CCN(C23CC4CC(CC(C4)C2)C3)CC1,-5.48
3,N=C1/C(=C/c2ccc(-c3ccccc3)o2)C(=O)N=C2SC=C(c3ccccc3)N12,-1.93
4,Cc1csc(NC(=O)c2cccn(OCc3ccccc3)c2=O)n1,-3.44
5,CCn1c2ccccc2c2cc(CNc3ccc4c(c3)CCC4)ccc21,5.01
6,CCN(CC)CCN(C)Cc1ccccc1Cl,-1.56
7,CCCC(=O)N(c1ccccc1)C1CC(C)Nc2ccccc21 (centres unmarked),1.41
8,CCCOC(=O)C1=C(C)NC(=O)NC1c1ccccc1 (centres unmarked),-2.35
9,COc1ccc(Br)cc1CN1CCN(C(=O)c2ccccc2)CC1,-12.3
10,Cc1cc(Cl)ccc1N(CC(=O)N1CCCCC1)S(C)(=O)=O,-5.85
11,CC(C)Cc1n[nH]c(SCC(=O)Nc2nnc(CC(C)C)s2)n1,3.16
12,Cc1ccc2c(c1)[C@H]1OCC[C@H]1[C@@H](c1ccncc1)N2,-0.872
13,O=C(Nc1cc(C(F)(F)F)ccc1F)C12CC3CC(C1)CC(n1cncn1)(C3)C2,-3.37
14,CCC(CC)COC(=O)C1=C(C)NC(=O)NC1c1cccc(F)c1 (centres unmarked),0.878
15,Cc1cccn2c(=O)c3cc(C(=O)N4CCC(Cc5ccccc5)CC4)n(C)c3nc12,-0.659
16,O=C(CCn1ccc2cc(S(=O)(=O)N3CCCC3)ccc21)NCCC1=CCCCC1,-2.12
17,Cc1cc(C)cc(OCC(=O)Nc2nc(-c3ccc(S(=O)(=O)N4CCOCC4)cc3)cs2)c1,5.99
18,COc1ccc(/C=C2/NC(=O)N(Cc3ccccc3F)C2=O)cc1O,2.92
19,CC(=O)Nc1ccc(S(=O)(=O)Nc2c(C)nn(Cc3ccc(Cl)c(Cl)c3)c2C)cc1,9.65
20,COc1ccc(OCC(=O)N2CCN(C(=O)c3ccco3)CC2)cc1,1.91
21,Cc1ccc(S(=O)(=O)NC(C(=O)O)C(C)O)cc1 (centres unmarked),5.54
22,CN(C)S(=O)(=O)c1ccc(C(=O)Nc2cc(C(F)(F)F)cc(C(F)(F)F)c2)cc1,-0.795
23,CCc1nnc(NC(=O)C2=C(C)C(=O)OC23CCCCCC3)s1,3.24
24,C1CC2CN(C3C4CC5CC(C4)CC3C5)CCN2C1 (centres unmarked),-1.15
25,COC(=O)/C(=C/c1ccc2c(c1)OCO2)NC(=O)c1ccc(C(C)(C)C)cc1,-1.81

row,SMILES,% Inhibition @ 10 uM [%]
1,CCOC(=O)N1CCN(C(=O)CCCN2C(=O)CSc3nc(C)cc(C)c32)CC1,-0.637
2,COc1cc(/C=C\C(=O)Nc2c3c(nn2-c2ccc(C)cc2C)CS(=O)(=O)C3)cc(OC)c1OC,2.92
3,CC1(C)N=C(c2ccccc2)C(=S)N1,7.35
4,COc1ccccc1C1CC(c2ccc(Br)cc2)=NN1C(=O)CCC(=O)O (centres unmarked),17
5,Cc1ccc(C)c(NC(=O)c2cnoc2C)c1,-3.45
6,CCOC(=O)c1cnc2c(OC)cc3c(c(C)c(C)n3C)c2c1O,0.9
7,CCNC(=O)/C(C#N)=C/c1c(Oc2ccc(OC)cc2)nc2c(C)cccn2c1=O,-3.23
8,CC(C)=CCCC(C)CN(CCN(C)C)Cc1ccccc1 (centres unmarked),-4.95
9,CCOC(=O)c1c(NC(=O)/C=C/C(=O)O)sc2c1CCC(C(C)(C)C)C2 (centres unmarked),0.222
10,COc1ccc(C(=O)Oc2c(Cc3ccccc3)c(=O)oc3ccccc23)cc1,0.685
11,CC(C)CCN(Cc1ccco1)C(=O)Nc1cn(C)c(=O)c2ccccc12,7.64
12,CCCNC(=O)C1CCCN(c2nnc(C)c3c(C)n(-c4ccc(OC)cc4)nc23)C1 (centres unmarked),8.15
13,O=C(Cn1cnc2ccccc21)c1ccc(Br)cc1,-1.07
14,CC1(C)CC(=O)C2=C(C1)c1c(ccc3ccccc13)NC2c1cccc(F)c1 (centres unmarked),-0.436
15,COc1ccc(C2C(C(=O)Nc3ccc(Cl)cc3)=C(C)Nc3ncnn32)c(OC)c1 (centres unmarked),6.63
16,CC1(C)CC(NC(=O)NC2CCCCC2)CC(C)(C)N1,1.35
17,O=C(NCCCn1ccnc1)c1cc2nc(-c3cccs3)cc(C(F)(F)F)n2n1,1.58
18,CCc1cc2c3c(c1)C(C)=CC(C)(C)N3C(=O)C2=O,-3.72
19,COc1ccc2c(c1)c(C(C)=O)c(C)n2-c1ccccc1C,0.132
20,O=C(CCn1c(=O)c2cccn2c2cccnc21)N1CCOCC1,2.6
21,CC1CCN(C(=O)Cn2ncc3c4ccccc4n(Cc4cccc(Cl)c4)c3c2=O)CC1,-3.35
22,CCCOc1ccc(CSc2nncn2N)cc1,0.484
23,CN1C(=O)C2Cc3c([nH]c4ccccc34)C(c3cccc(O)c3)N2C1=S (centres unmarked),-3.62
24,Cc1ccc2nc3c(cc(C(=O)NCC4CCCO4)c(=N)n3Cc3cccnc3)c(=O)n2c1 (centres unmarked),1.76
25,O=C1NC(=O)N(CCc2ccc(F)cc2)C(=O)/C1=C/c1cccc2ccccc12,0.503

row,SMILES,% Inhibition @ 10 uM [%]
1,Cc1c(Cl)cccc1-n1nc(C)c2c(C)cc(=O)n(CC(=O)O)c21,0.124
2,CCCCN(C)C(=O)C1CCN(C(=O)c2cnn(-c3ccccc3)c2-n2cccc2)CC1,3.4
3,CC(C)c1ccc(OCC(=O)Nc2ccc(S(=O)(=O)N3CCOCC3)cc2)cc1,-7.09
4,Cc1ccc(Cl)cc1NC(=O)c1cccnc1,6.1
5,O=C(O)c1c(CNCCc2c[nH]c3ccccc23)c2ccccc2n1Cc1ccccc1F,3.54
6,O=S(=O)(c1ccc(-c2ccc(O)nn2)s1)N1CCCN(Cc2ccc(F)cc2)C1,2.09
7,CCCCCCCc1c(C#N)c(N)nc(S)c1C#N,71.3
8,Cc1ccc(-c2csc(NC(=O)CN3CCCCC3)n2)cc1,0.431
9,Oc1ccc(-c2csc(-c3ccncc3)n2)cc1O,-10.1
10,COCCN1Cc2cccc(C(=O)N3CCC(N4CCCCC4)CC3)c2C1=O,1.02
11,COc1ccc(Cn2nnc3c(O)nc(C4CCCN(C(=O)c5ccccc5)C4)nc32)cc1 (centres unmarked),2.54
12,CNc1nc(CC(=O)C2CC2)nc(OC)n1,2.62
13,CSc1nc(O)cc(=O)n1-c1ccccc1,-2.6
14,COc1cccc(-c2[nH]nc3c2C(c2cccs2)NC3=O)c1 (centres unmarked),-3.35
15,COc1cccc(NC(=O)COc2ccc(C)cc2Br)c1,1.04
16,COc1ccc(C(C)NC(=O)c2ccc(OC)c(OC)c2)cc1 (centres unmarked),-8.49
17,O=[N+]([O-])c1ccc(S(=O)(=O)N(Cc2ccccc2)Cc2ccccc2)cc1,-1.8
18,Cc1cc(C(=O)N2CCN(Cc3ccccc3)CC2)on1,9.05
19,O=C1c2cccc3c(N4CCOCC4)ccc(c23)C(=O)N1CCO,3.32
20,CCOc1ccc(NC(=O)/C(C#N)=C\c2c[nH]c3ccccc23)cc1,2.05
21,O=C(NCCC1=CCCCC1)C1CCN(c2nc3ccccc3n3cccc23)CC1,6.84
22,O=C1CC(c2ccc(Cl)cc2)c2cc3c(cc2N1)OCO3 (centres unmarked),0.231
23,COC(=O)c1ccccc1-n1cc2c(c1-c1ccc(C(C)(C)C)cc1)c(=O)n(C)c(=O)n2C,0.366
